Experimental data published in PubChem BioAssay AID1240 (Sanford-Burnham Center for Chemical Genomics, 2008).
The whole screen tested about 50,000 compounds, of which about 800 (1.6%) showed an effect of 50% or more. This is one part of the list.

The molecules below were run against Bcl-2-like protein 10 (Homo sapiens) (UniProt Q9HD36) (assay: Phenotype converters, Bcl-B/TR3 peptide binding displacement, primary biochemical FP (AID 1240;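 further: 0% = Bcl-B with tracer peptide and DMSO and 100% = tracer peptide lacking Bcl-B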)). Conditions: GST-Bcl-B / FITC-TR3 peptide fluorescence polarization; stronger effect = higher value; compound at 3.75 mg/L.
UniProt Q9HD36, sequence (Q9HD36 whole entry, looked up): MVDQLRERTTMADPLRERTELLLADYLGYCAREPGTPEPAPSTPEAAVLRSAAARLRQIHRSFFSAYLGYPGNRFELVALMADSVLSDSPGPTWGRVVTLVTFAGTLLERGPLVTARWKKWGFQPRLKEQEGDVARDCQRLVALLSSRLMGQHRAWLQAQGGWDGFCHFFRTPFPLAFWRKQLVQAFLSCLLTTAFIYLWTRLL

SMILES	displacement
COc1ccccc1N1C(=O)c2ccc(C(=O)Nc3ccc(O)cc3C)cc2C1=O	0.7%
CSc1ccc(/C=C/C(=O)c2ccc(NC(=O)c3ccccc3F)cc2)cc1	-3%
O=C(O)/C=C/c1cccc(NS(=O)(=O)c2ccccc2)c1	2%
C=CCc1ccccc1OCCOc1c(Br)cc(/C=C2/SC(=S)N(C)C2=O)cc1OC	13.9%
O=C1C(=O)N(CC2CCCO2)C(c2ccc(Cl)cc2)/C1=C(/O)c1ccccc1 (centres undefined)	-16.7%
CCc1nn2c(N)c(/C=C3\C=C(Br)C=CC3=O)c(=O)nc2s1	-5%
CCOC(=O)C1=C(C)NC(=O)CC1c1cc2c(cc1Br)OCO2 (centres undefined)	-6.4%
O=C(O)CC1SC(=NC(=O)c2ccco2)N(c2ccccc2)C1=O (centres undefined)	3.2%
COc1cc(C=C2C(=O)c3ccccc3C2=O)ccc1OCc1ccc(I)cc1	-11.5%
CCOc1ccc(C(=O)Nc2ccc(C(=O)OC)cc2)cc1Br	-7.2%
O=C(/C=C/c1ccccc1)NC(=S)Nc1ccc(-c2nc3ncccc3o2)cc1	12.2%
N/C(=N\OC(=O)C(c1ccccc1)c1ccccc1)c1ccccn1	9.5%
Cc1ccccc1OCCNc1cc(N2CCOCC2)ccc1[N+](=O)[O-]	8.4%
C=CCN1C(=O)/C(=C/c2cccc(Br)c2)SC1=S	7.2%
CCOC(=O)COc1ccc(/C=c2/sc3nc4cc(C)c(C)cc4n3c2=O)cc1OC	-4.4%
Ic1ccc(OCCCCCCN2CCCC2)cc1	14.8%
C/C(=N\N1CCN(Cc2ccc(C)cc2)CC1)c1ccncc1	16.9%
O=C(c1ccc(O)cc1)c1ccc(Cl)cc1	7.5%
COc1ccc(C(=O)Nc2ccc(Br)c(Cl)c2)cc1	-9.2%
COc1ccc(C2Nc3ccccc3NC3=C2C(=O)CC(C)(C)C3)cc1O (centres undefined)	-4%
O=C1NC(=S)NC(=O)C1=Cc1cc(Cl)c(OCc2ccccc2F)c(Cl)c1	-0.6%
C=CCN1C(=O)S/C(=C/c2cc(Br)c(O)c(OCC)c2)C1=O	-21.9%
CCOc1ccc2nc(SCC(=O)Nc3cc(C)cc(C)c3)sc2c1	-6%

SMILES	displacement
COc1cc(/C=C2\C(=O)N(c3nc(-c4ccc(Cl)cc4)cs3)N=C2C)cc(OC)c1OC	11.6%
NC(=S)N(C1=NCCCCC1)c1ccc(Br)cc1	-5.6%
CC1=CC2(C#N)C3(N=C(N)C2(C#N)C(c2ccccc2)N1)OCCO3 (centres undefined)	11.6%
O=C(NC(=S)Nc1ccc(Br)cn1)c1ccc(Cl)cc1	3.5%
COc1ccc(C=C2C(=O)N(c3ccccc3)C(=S)N(c3ccccc3)C2=O)c(OC)c1	10.9%
Cc1ccc(N=Cc2cc(Cl)cc(Cl)c2O)cc1F	-8.4%
Cc1cccc(C2OC3(C(=O)c4ccccc4C3=O)C3C(=O)N(c4ccc(C)c(Cl)c4)C(=O)C23)c1 (centres undefined)	14.4%
CCOc1ccccc1NC(=O)C(=O)NCc1ccncc1	8.9%
COc1ccc(N(C(=O)Nc2ccccc2Cl)C(CC(=O)C2CC2)c2ccccc2)cc1 (centres undefined)	4.4%
COc1cc([N+](=O)[O-])ccc1NC(=O)COc1ccc(Br)cc1	-45.3%
Cn1ccnc1SCC(=O)Nc1ccccc1F	6.5%
CCCOC(=O)c1ccc(NC(=O)COc2ccc(CC)cc2)cc1	-1.2%
O=C1c2ccccc2C(=O)c2c1cccc2S(=O)(=O)NNc1ccccc1	10.9%
Cc1ccccc1C(=O)Nc1cccc(NC(=O)c2ccc(-c3ccc([N+](=O)[O-])cc3C)o2)c1	11.5%
O=C1C2C3C=CC(O3)C2C(=O)N1c1ccccc1I (centres undefined)	17.8%
CC1=C(C(=O)Nc2ccccc2)C(c2ccc([N+](=O)[O-])cc2)N2C(=O)CSC2=N1 (centres undefined)	4.7%
Cc1cc(Cl)ccc1OCC(=O)NNC(=O)c1cccnc1	-2.4%
C=CCOC(=O)C1CC=CCC1C(=O)Nc1nc2ccc(OCC)cc2s1 (centres undefined)	5.8%
Cc1ccc(-c2nc3cc(Cl)ccc3o2)cc1NC(=O)/C=C/c1cccc([N+](=O)[O-])c1	-18.8%
CCOc1ccccc1NC(=O)c1c(NC(=O)C(F)(F)F)sc2c1CCCCC2	-2.4%
O=C(Cc1ccc(Br)cc1)N1CCN(c2ccc(F)cc2)CC1	6.2%
CS(=O)(=O)N(Cc1ccc(Cl)cc1)c1ccc(C(=O)NCc2ccncc2)cc1	6.5%
CC(C)(C)OC(=O)N1CC(O)CC1C(=O)NC1CCCCC1 (centres undefined)	0.2%

SMILES	displacement
COc1cc(/C=N\NC(=O)COc2ccccc2Cl)cc(OC)c1O	-8.1%
Cc1ccccc1C(=O)N1CC(C)CC(C)C1 (centres undefined)	16.8%
CC(=O)Nc1ccc(S(=O)(=O)Nc2cccc(Cl)c2)cc1	-7.3%
Cn1c(COc2ccc(Cl)cc2)nc2ccccc2c1=O	-1.8%
CCc1ccc(-n2c(C)cc(/C=C3/NC(=O)NC3=O)c2C)cc1	-6.3%
Cc1ccc(C(=O)Nc2ccccc2C(=O)OCCN2CCCC2=O)cc1	19.9%
CCCC(C)NC(=O)c1ccc(C)c([N+](=O)[O-])c1 (centres undefined)	5.5%
COC(=O)c1sc(NC(=O)/C=C/c2cccc([N+](=O)[O-])c2)c(C(=O)OC)c1C	-0.2%
COc1cccc(NC(=O)c2cccc(C(F)(F)F)c2)c1	-9.2%
COc1ccc(C2/C(=C(\O)c3ccccc3)C(=O)C(=O)N2c2cccnc2)cc1OC (centres undefined)	4.2%
Cc1cc(OCC(=O)Nc2ccc(F)cc2)ccc1Cl	1.6%
Cc1ccc(N/C=C2/CNC(=O)NC2=O)cc1	37.8%
O=[N+]([O-])c1ccc(O)c(/C=N/Nc2nnc(-c3ccccc3)c(-c3ccccc3)n2)c1	16.8%
Cc1cccc(C(=O)Nc2sc3c(c2C(=O)N2CCCC2)CCCCC3)c1	-7.4%
O=C(c1cc(Cl)ccc1Cl)N1CCN(c2ccc(F)cc2)CC1	-10.7%
COc1ccc(C(=O)Nc2ccc(S(N)(=O)=O)cc2)cc1[N+](=O)[O-]	-7.1%
Cc1ccccc1C(=O)NCCCn1ccnc1	-11%
CC(C)OP(=O)(OC(C)C)C(O)c1ccc2c(c1)OCO2 (centres undefined)	9.4%
CCCCC1CCC(C(=O)NNC(N)=O)CC1 (centres undefined)	-4.8%
COc1ccc(C2CC(=O)C3=C(C2)Nc2ccccc2NC3c2cc(Br)c(OC)c(OC)c2)cc1 (centres undefined)	-4.4%
CCOc1cc2c(c([N+](=O)[O-])c1)NC(c1ccccc1)C1CC=CC21 (centres undefined)	-2%
O=C1NC(=S)N(c2ccccc2F)C(=O)/C1=C/c1ccc(I)o1	-44.4%
Cc1ccc(N2CCN(/N=C\c3cccc(Cl)c3Cl)CC2)cc1	28%
